Laboratory results from PubChem BioAssay AID759 (NMMLSC, 2007).
Out of some 190,000 compounds screened, about 270 (0.14%) were called active. The inconclusive results got no clear call from the source; some entries with a clear call stand among them for comparison.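 Rule for the calls: active = GTP binding activity at least 20% away from the 100% baseline, either lowered as inhibitor or raised as activator; inconclusive = flagged as likely green fluorescent, judged across all proteins in the well; inactive = the rest.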

target: GTPase HRas (Homo sapiens) (UniProt P01112); assay: HRas wt fluorescent GTP binding changes, either direction – biochemical, wildtype, bead-based flow cytometry, multiplex, primary screen (AID 759); details: GST-Ras wt beads, Bodipy-FL-GTP binding, at 10 µM, actives lie on both sides;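 note: 0% = unlabeled GTP competition control and 100% = no-compound control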
UniProt P01112, sequence (P01112 whole entry, looked up): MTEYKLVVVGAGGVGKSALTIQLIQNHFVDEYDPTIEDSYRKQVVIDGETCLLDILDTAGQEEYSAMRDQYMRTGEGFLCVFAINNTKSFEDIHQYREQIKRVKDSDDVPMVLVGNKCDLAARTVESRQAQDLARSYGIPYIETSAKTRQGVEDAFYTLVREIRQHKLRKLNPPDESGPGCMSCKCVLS

Compound	GTP binding activity
Cc1ccc(C(=O)C(OC(=O)CCC(=O)Nc2cccc(C)c2)c2ccccc2)cc1 (stereo unspecified)	inconclusive: 105%
CCOC(=O)NC(Nc1ccc(S(N)(=O)=O)cc1)(C(=O)OCC)C(F)(F)F (stereo unspecified)	inconclusive: 104%
COc1cc(/C=C2/C(=N)N3C=CSC3=NC2=O)ccc1OCCCOc1ccccc1C	inconclusive: 105%
Cc1cccc2c(CCNC(=O)c3ccc([N+](=O)[O-])cc3)c[nH]c12	inconclusive: 97%
CCCNS(=O)(=O)c1ccc2c(c1)CCCN2C(C)=O	inconclusive: 102%
O=C(CSc1ccc2nnc(-c3ccccn3)n2n1)Nc1ccc2c(c1)OCO2	inconclusive: 79%
O=C(CSc1nnc(-c2ccccc2)c(-c2ccccc2)n1)Nc1ncc(Cl)cc1Cl	inconclusive: 109%
CCCCn1c(N)c(N(CC)C(=O)C(c2ccccc2)c2ccccc2)c(=O)[nH]c1=O	inconclusive: 156%
O=C(c1nn(Cc2ccccc2)c(=O)c2ccccc12)N1CCN(C/C=C/c2ccccc2)CC1	inactive: 102%
O=C(N/N=C/c1ccc([N+](=O)[O-])o1)c1cccc(S(=O)(=O)N2CCOCC2)c1	inactive: 96%
Cc1[nH]nc2c1C(c1cccs1)C1=C(CC(C)(C)CC1=O)N2 (stereo unspecified)	inactive: 98%
CCCn1c(SCC(=O)Nc2cc(S(=O)(=O)N3CCOCC3)ccc2OC)n[nH]c1=O	inactive: 99%
O=C(CSc1ccc2nnc(-c3ccccc3)n2n1)N1CCCc2ccccc21	inconclusive: 88%
O=C(NC1CC1)C1CCN(C2CCN(C(=O)/C=C/c3cccs3)CC2)CC1	inconclusive: 95%
CCOC(=O)c1cnn(-c2cc(Oc3ccccc3C)ncn2)c1N	inactive: 97%
O=C(NCCc1ccccc1)C(=O)N/N=C/c1ccccc1C(F)(F)F	inconclusive: 103%
CCN(CC)S(=O)(=O)c1cccc(-c2nnc(SCCOc3ccccc3C)o2)c1	inconclusive: 92%
Cc1cc(/C=C(/C#N)c2nc3ccccc3[nH]2)c(C)n1-c1cc(C(=O)O)cc(C(=O)O)c1	inconclusive: 81%
Cc1nonc1OCCCNc1ccc([N+](=O)[O-])cc1Cl	inactive: 98%

Compound	GTP binding activity
CCOc1ccccc1N1CCN(C(=O)Nc2ccc(Cl)c(Cl)c2)CC1	inconclusive: 90%
O=C(NCCc1ccc2c(c1)OCCO2)c1ccc([N+](=O)[O-])cc1Cl	inactive: 93%
COc1ccc(C2SCCN2C(=S)Nc2ccc(Cl)cc2)cc1 (stereo unspecified)	inconclusive: 101%
O=C(Oc1cccc(O)c1)C1CCCCC1	inconclusive: 79%
C=CCN1C(=O)/C(=C2/Sc3ccccc3N2CCCS(=O)(=O)O)SC1=S	inconclusive: 86%
COc1ccc(OC)c(CN2CCC(CNC(=O)Nc3cccc(Cl)c3)CC2)c1	inconclusive: 93%
COCCn1c(N)c(C(=O)NCc2cccs2)c2nc3ccccc3nc21	inconclusive: 79%
O=C(NCc1ccccc1)c1cc(=O)c2ccccc2o1	inconclusive: 93%
Cc1ccc(N2C(=O)c3ccc(C(=O)N4CCN(c5cccc(C)c5C)CC4)cc3C2=O)cc1	inactive: 94%
CCOc1ccc(NC(=O)CC2C(=O)N(c3ccc(OC)cc3)C(=S)N2Cc2ccccn2)cc1 (stereo unspecified)	inactive: 96%
O=c1c(-c2ccco2)[n+]([O-])c2ccccc2n1OCc1ccccc1[N+](=O)[O-]	inconclusive: 95%
Cc1sc2c(c1C)c(=O)n(-c1ccccc1)c(=O)n2CC(=O)NCC1CCCO1 (stereo unspecified)	inactive: 98%
O=C(Cc1ccc(Nc2nc(=S)[nH]c3ccccc23)cc1)NC1CCCCC1	active: 68%
COCCN1C(=O)/C(=C/c2ccc(N3CCCC3)cc2C)SC1=S	inconclusive: 161%
CSc1nc2ccc(NC(=O)C3CC(=O)N(Cc4ccco4)C3)cc2s1 (stereo unspecified)	inactive: 81%
CCCc1[nH]nc2c1C(c1ccc(OC)c(Cn3nnc4ccccc43)c1)C(C#N)=C(N)O2 (stereo unspecified)	inconclusive: 102%
Cc1cc(-c2ccccc2)c(C#N)c(N)n1	inconclusive: 90%
Cc1[nH][nH]c(=O)c1C(c1ccc(-c2ccc(Cl)c(C(=O)O)c2)o1)c1c(C)[nH][nH]c1=O	inconclusive: 91%
CCN(CC)CCCn1c(=S)[nH]c2cc(C(=O)OC)ccc2c1=O	inconclusive: 105%

Compound	GTP binding activity
S=C(NCC1CCCO1)Nc1ccccc1 (stereo unspecified)	inconclusive: 94%
Cc1cc(N2C(=O)CC(Cc3ccc(Cl)cc3)C2=O)no1 (stereo unspecified)	inconclusive: 104%
O=C1CC(N(CCc2ccccc2)C(=S)Nc2cc(Cl)ccc2Cl)C(=O)N1c1c(Cl)cccc1Cl (stereo unspecified)	inactive: 97%
CC1(C)CC(=O)C2=C(C1)OC(c1ccncc1)C(C#N)=C2N (stereo unspecified)	inconclusive: 102%
CCN(CC)S(=O)(=O)c1cc(NC(=O)CSc2nccn2C)ccc1C	inactive: 96%
O=C(CCN1CCCC1Cc1ccccc1)c1ccc2c(c1)OCCO2 (stereo unspecified)	inactive: 85%
O=c1c2ccccc2nnn1CSc1ccc2c(c1)OCCO2	inconclusive: 108%
CCCN1C(=O)C(Cc2nc3ccccc3c(=O)n2C)c2ccccc21 (stereo unspecified)	inconclusive: 100%
CCOC(=O)NC(=O)CSc1ccccn1	inconclusive: 97%
CCOc1ccc(C(C)NC(=O)c2cccc(F)c2)cc1 (stereo unspecified)	inactive: 102%
CC(C)C1=NOC(C(=O)N2CCC(N3CCC(C(=O)N4CCOCC4)CC3)CC2)C1 (stereo unspecified)	inconclusive: 96%
O=C(O)CCc1ccc(-c2cccs2)n1Cc1ccco1	inconclusive: 112%
O=c1cc(CN2CC(O)Cc3ccc4ccccc4c32)nc2sccn12 (stereo unspecified)	inactive: 96%
N#C/C(=C\c1ccncc1)c1nc2ccccc2[nH]1	active: 43%
O=c1c2sccc2nc(SCc2cc(=O)n3cc(Cl)ccc3n2)n1Cc1ccccn1	inconclusive: 96%
Cc1ccc(/C=N/NC(=O)c2ccc(C(=O)N/N=C/c3ccc(C)s3)o2)s1	inconclusive: 93%
COc1cc(/C=C/C(=O)OCC(=O)c2c(N)n(C)c(=O)n(C)c2=O)ccc1OCC#N	inactive: 88%
COc1ccc(-c2c3c(nc4sc(C(=O)Nc5cc(C)on5)c(N)c24)CCC3)cc1	inactive: 93%
